Experimental data published in PubChem BioAssay AID504333 (National Center for Advancing Translational Sciences (NCATS), 2011).
In all, about 360,000 compounds went through this assay and about 16,000 (4.4%) were called active. This list was built around the results that the source calls inconclusive (neither active nor inactive); the mix of calls is not that of the screen. Calls follow the shape of the dose curve; as a rule, active = well fitted inhibition curve with a large enough effect; inconclusive = small, poorly fitted or top-dose-only effect; inactive = no such curve, though single readings can be large or run the other way. Where the call is inconclusive, the potency comes from a doubtful curve fit.

Each molecule was assayed against Bromodomain adjacent to zinc finger domain protein 2B (Homo sapiens) (UniProt Q9UIF8) (assay: qHTS Assay for Inhibitors of BAZ2B). Details: AlphaScreen BAZ2B-H3K14Ac peptide displacement; series mostly up to 114 µM.
Method in brief: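 BAZ2B (50 nM) with biotin-H3(5-23)K14Ac peptide (50 nM) in PBS pH 7.4, 0.01% Tween-20, preformed 30 min, then compound 30 min at room temperature; top concentration 110uM. AlphaScreen streptavidin donor/nickel chelate acceptor beads (10 ug/mL final), 20 min dark, signal read.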
Also: nearly all actives have a fitted effect of over 60% in size.
Potency is read from the fitted curve at half-maximal effect; tags tell the direction and shape of the fitted curve.

UniProt Q9UIF8, sequence (Q9UIF8 whole entry, looked up, the tested form may be a part): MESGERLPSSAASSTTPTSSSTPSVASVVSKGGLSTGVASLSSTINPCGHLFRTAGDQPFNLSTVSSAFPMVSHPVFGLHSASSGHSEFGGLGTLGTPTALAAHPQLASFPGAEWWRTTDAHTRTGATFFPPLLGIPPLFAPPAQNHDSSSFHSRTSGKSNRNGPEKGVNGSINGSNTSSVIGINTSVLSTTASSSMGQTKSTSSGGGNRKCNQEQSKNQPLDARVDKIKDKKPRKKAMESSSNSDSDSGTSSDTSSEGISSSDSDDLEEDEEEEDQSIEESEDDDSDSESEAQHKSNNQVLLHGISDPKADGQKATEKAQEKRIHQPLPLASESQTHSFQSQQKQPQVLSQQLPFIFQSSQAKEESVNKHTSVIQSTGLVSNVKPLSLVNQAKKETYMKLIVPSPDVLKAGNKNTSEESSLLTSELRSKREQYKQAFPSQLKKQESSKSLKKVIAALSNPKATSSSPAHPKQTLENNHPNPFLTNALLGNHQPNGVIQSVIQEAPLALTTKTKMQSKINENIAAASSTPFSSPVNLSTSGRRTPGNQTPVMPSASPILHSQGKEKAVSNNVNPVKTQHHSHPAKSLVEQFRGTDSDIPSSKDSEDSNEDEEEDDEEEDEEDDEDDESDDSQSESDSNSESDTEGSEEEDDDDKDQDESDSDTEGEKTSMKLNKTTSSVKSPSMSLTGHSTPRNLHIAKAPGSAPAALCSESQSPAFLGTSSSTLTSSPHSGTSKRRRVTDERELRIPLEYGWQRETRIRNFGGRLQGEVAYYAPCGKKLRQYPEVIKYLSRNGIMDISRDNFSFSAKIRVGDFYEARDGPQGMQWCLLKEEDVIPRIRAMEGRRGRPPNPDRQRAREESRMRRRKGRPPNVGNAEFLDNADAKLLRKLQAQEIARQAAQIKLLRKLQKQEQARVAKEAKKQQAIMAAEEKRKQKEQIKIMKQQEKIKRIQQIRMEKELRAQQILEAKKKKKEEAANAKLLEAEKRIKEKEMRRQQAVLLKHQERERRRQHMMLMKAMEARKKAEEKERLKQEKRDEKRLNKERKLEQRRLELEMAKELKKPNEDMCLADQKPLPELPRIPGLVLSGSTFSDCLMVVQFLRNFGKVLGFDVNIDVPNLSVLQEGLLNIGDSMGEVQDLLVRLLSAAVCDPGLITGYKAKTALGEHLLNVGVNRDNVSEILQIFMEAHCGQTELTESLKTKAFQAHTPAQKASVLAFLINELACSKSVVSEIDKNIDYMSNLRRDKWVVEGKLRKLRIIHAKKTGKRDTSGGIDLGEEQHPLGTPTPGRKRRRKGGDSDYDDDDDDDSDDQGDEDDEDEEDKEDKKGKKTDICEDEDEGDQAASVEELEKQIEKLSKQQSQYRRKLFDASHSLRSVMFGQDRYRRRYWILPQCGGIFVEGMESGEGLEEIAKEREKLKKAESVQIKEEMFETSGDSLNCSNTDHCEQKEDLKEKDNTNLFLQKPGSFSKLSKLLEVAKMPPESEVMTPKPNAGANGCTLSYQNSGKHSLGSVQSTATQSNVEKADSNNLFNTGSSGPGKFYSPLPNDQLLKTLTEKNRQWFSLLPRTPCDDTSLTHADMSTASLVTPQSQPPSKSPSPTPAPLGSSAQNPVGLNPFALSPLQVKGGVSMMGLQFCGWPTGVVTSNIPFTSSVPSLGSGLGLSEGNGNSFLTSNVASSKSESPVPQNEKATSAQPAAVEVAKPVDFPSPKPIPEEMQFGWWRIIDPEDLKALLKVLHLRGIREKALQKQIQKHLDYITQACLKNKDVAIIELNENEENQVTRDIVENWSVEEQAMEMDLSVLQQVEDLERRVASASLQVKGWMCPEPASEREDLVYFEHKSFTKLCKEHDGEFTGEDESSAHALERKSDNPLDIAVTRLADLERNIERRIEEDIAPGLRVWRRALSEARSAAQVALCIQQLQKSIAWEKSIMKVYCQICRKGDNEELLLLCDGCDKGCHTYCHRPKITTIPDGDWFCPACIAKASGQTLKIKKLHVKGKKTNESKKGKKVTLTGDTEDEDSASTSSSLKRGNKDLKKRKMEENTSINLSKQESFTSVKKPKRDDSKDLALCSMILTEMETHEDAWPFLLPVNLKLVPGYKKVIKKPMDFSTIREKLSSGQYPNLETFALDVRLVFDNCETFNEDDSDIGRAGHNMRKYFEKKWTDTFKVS

Structure (SMILES)	Potency
COc1ccc(C(=O)OC(C)C(=O)NC(C)CCc2ccccc2)cc1OC (centres undefined)	inactive
Cc1ccc2nc3sc(C(=O)NCc4ccco4)c(N)c3cc2c1	inactive
COc1cc(C(c2c(C)[nH][nH]c2=O)c2c(C)[nH][nH]c2=O)ccc1OC(=O)c1cccc(C)c1	inconclusive: 39.8 µM [inhibitor, partial curve]
CCOC(=O)C1CCCCN1S(=O)(=O)c1csc(C(N)=O)c1 (centres undefined)	inconclusive: 89.1 µM [inhibitor, single point]
CCn1c(SCC(=O)NCc2ccc3c(c2)OCO3)nc2c(c1=O)SCC2	inconclusive: 89.1 µM [inhibitor, single point]
Brc1ccc(CN2CCN(Cc3c[nH]c4ccccc34)CC2)cc1	active: 39.8 µM
CC[C@@H](C)[C@@H](C(=O)N1CCN(C(=O)OC(C)(C)C)CC1)n1cc(CCCN=C(NC(=O)OC(C)(C)C)NC(=O)OC(C)(C)C)nn1	inconclusive: 79.4 µM [inhibitor, single point]
O=[N+]([O-])c1ccc(/C=N/NC(=S)Nc2ccc(Cl)cc2Cl)s1	inconclusive: 79.4 µM [inhibitor, partial curve]
Nc1ccc(N2CCCCC2)c2nonc12	active: 25.1 µM
COCCCNCCOCCOc1ccc(Cl)cc1C(C)(C)C	inconclusive: 89.1 µM [inhibitor, single point]
CCn1c(SCc2nc3sc(C(=O)O)c(C)c3c(=O)[nH]2)nnc1-c1ccc(Cl)cc1	active: 56.2 µM
COC(=O)c1cc(NCc2c(F)cccc2Cl)ccc1N1CCOCC1	inactive
CC(=O)Nc1ccc(N2CCCCC2)cc1	inactive
CN(Cc1ccc(N(C)C)cc1)C(=O)c1cc2ccccc2o1	active: 31.6 µM
CC(C)C(NC(=O)CN1C(=O)c2ccccc2C1=O)c1ccccc1 (centres undefined)	inactive
Cc1nc2c(C(=O)NCCc3ccc(Cl)cc3)c[nH]n2c(=O)c1Cc1ccc(Cl)cc1	inactive
CC(=O)OCC(=O)Nc1ccc(N=Nc2ccccc2)cc1	inconclusive: 28.2 µM [inhibitor, full curve]
CCOc1ccc(CCN2C(=O)C(=O)N([C@H](CCCN(C)Cc3ccccc3)CNCc3ccccc3)C[C@@H]2C(C)C)cc1	inconclusive: 89.1 µM [inhibitor, single point]
COc1ccc(N2C(=O)C(CC(N)=O)N(NC(=O)CCc3ccccc3)C2=O)cc1 (centres undefined)	inconclusive: 89.1 µM [inhibitor, single point]
Cc1ccc(NC2=C/C(=N/S(=O)(=O)c3cccs3)c3ccccc3C2=O)cc1C	inconclusive: 79.4 µM [inhibitor, single point]
Cc1cc(Cl)c2oc(C(=O)NC(C)c3ccncn3)c(C)c2c1 (centres undefined)	inconclusive: 89.1 µM [inhibitor, single point]
Cc1ccc(/C=C/C(=O)OCC(=O)NC(=O)NCc2ccco2)cc1	inconclusive: 79.4 µM [inhibitor, single point]
CC1CN(Cc2csc(-c3ccc(Cl)cc3)n2)CC(C)O1 (centres undefined)	active: 50.1 µM
CC(C)Nc1nnc(SCC(=O)Nc2sccc2C#N)s1	inconclusive: 89.1 µM [inhibitor, single point]
CCCCOc1ccc(CN2C(=O)C(=O)c3cc(Br)cc(C)c32)cc1OC	active: 6.31 µM

Structure (SMILES)	Potency
Cc1[nH]c2c([N+](=O)[O-])cccc2c1C	inactive
Cc1cc(-c2ccccc2)nc2cc(C(=O)NCc3ccco3)nn12	active: 50.1 µM
O=[N+]([O-])c1ccc(-c2c(-c3ccccc3)ncc3cc(F)ccc23)cc1	inconclusive: 31.6 µM [inhibitor, full curve]
Cc1cc(C)cc(NC(=O)c2cccc(C(=O)Nc3cc(C)cc(C)c3)n2)c1	inconclusive: 89.1 µM [inhibitor, single point]
Cc1c(C)n(C(=O)CSc2nc3ccccc3[nH]2)c2ccccc12	inconclusive: 28.2 µM [inhibitor, single point]
O=C(CNS(=O)(=O)c1ccc([N+](=O)[O-])cc1)N/N=C/c1ccc(O)cc1O	inactive
CCC(C(=O)O)n1c2ccccc2c2cn[nH]c(=O)c21 (centres undefined)	inactive
COc1cccc(CNC(=O)CN(C)S(=O)(=O)c2ccc3[nH]c4c(c3c2)CCCC4)c1	inactive
COc1cc(O)c(C(CC(=O)N2CCCCC2)c2ccc(N(C)C)cc2)c(OC)c1 (centres undefined)	inconclusive: 50.1 µM [inhibitor, partial curve]
COc1cccc(C(=O)OCC(=O)c2c(N)n(C)c(=O)n(C)c2=O)c1	inconclusive: 89.1 µM [inhibitor, single point]
COc1ccc(OCC(=O)NC(=S)N2CCCc3ccccc32)cc1	active: 50.1 µM
CCOC(=O)C1CCN(c2nc3ccccc3nc2C(C#N)C(=O)NCCc2ccccc2)CC1 (centres undefined)	inconclusive: 63.1 µM [inhibitor, partial curve]
Cc1c(C)c2ccc(OCC(=O)Nc3ccc(S(N)(=O)=O)cc3)c(C)c2oc1=O	inconclusive: 89.1 µM [inhibitor, single point]
CCCN(N=Nc1cccc([N+](=O)[O-])c1)c1cccc([N+](=O)[O-])c1	inconclusive: 44.7 µM [inhibitor, partial curve]
COc1ccc(C(=O)O)cc1NC(=S)NC(=O)C(c1ccccc1)c1ccccc1	inconclusive: 79.4 µM [inhibitor, single point]
N#C/C(=N/Nc1ccc(S(=O)(=O)N2CCOCC2)cc1)C(N)=O	inactive
CN(C[C@H](Cc1ccccc1)N(C[C@H](Cc1cccc2ccccc12)N(CCc1ccccc1)N=O)N=O)N=O	active: 70.8 µM
Cc1cccc(-c2nc3c(c(SCc4ccccc4Cl)n2)Cc2c(CO)cnc(C)c2O3)c1	inconclusive: 89.1 µM [inhibitor, single point]
COc1cc(Cl)c(C)cc1NC(=O)c1cc2c(Cl)nc3ccc(C)cc3c2s1	inconclusive: 31.6 µM [inhibitor, single point]
CC(C)(C)c1ccc(Cn2nnc3c(=O)[nH]c(C4CCCN(C(=O)c5cccs5)C4)nc32)cc1 (centres undefined)	inactive
COc1ccc(CNCCCC(=O)Nc2c(Cl)ccc(C)c2Cl)cc1OC	active: 56.2 µM
CCOc1ccccc1NC(=O)c1c(NC(=O)C(C)Oc2ccc(Cl)cc2)sc2c1CCCCC2 (centres undefined)	inactive
CCC(C)(C)NC(=O)Cc1ccc(F)cc1	inactive
Cc1[nH]c(=O)c(C#N)c2c1CCCC2	inactive
CC(=O)c1cc(-c2ccc(F)cc2)n(CCC(=O)NC(C)(C)C)c1C	active: 50.1 µM

Structure (SMILES)	Potency
Cc1nc(SCC(=O)Nc2ccc(Cl)cc2[N+](=O)[O-])nc(C)c1C	active: 44.7 µM
CCCOC(=O)CSc1ncnc2sc3c(c12)CCC(C)C3 (centres undefined)	inactive
CCn1cnc2cc(NCc3nc4ccccc4n3C)ccc21	inconclusive: 56.2 µM [inhibitor, partial curve]
O=C(O)C1=C[C@@H](c2ccc(F)cc2)C[C@@H](OCCCCO)O1	active: 79.4 µM
COCc1cc(C)n(CC(=O)N/N=C/c2ccc(-c3ccc(Cl)c(C(=O)O)c3)o2)c(=O)c1C#N	inconclusive: 89.1 µM [inhibitor, single point]
O=C(/C=C\c1cn(-c2ccccc2)nc1-c1ccc2c(c1)OCCO2)N1CCOCC1	inconclusive: 70.8 µM [inhibitor, single point]
O=C(Nc1ccccc1C(=O)N/N=C/c1ccco1)c1ccccc1Cl	inactive
COc1ccccc1N(C(=O)c1snc(C(N)=O)c1N)C(C(=O)NC1CCCC1)c1ccc2ncccc2c1 (centres undefined)	inactive
COc1ccc(N(CC(=O)NC2CCCCC2)C(=O)CNC(=O)c2ccco2)cc1	inactive
CCN1C(=S)SC(=O)C1=C1C=C(C)N(CCOC)C(C)=C1	inconclusive: 70.8 µM [inhibitor, single point]
CN(C(=O)CCl)C1CCCc2ccccc21 (centres undefined)	inconclusive: 89.1 µM [inhibitor, single point]
Oc1ccc(N=Nc2c(O)ccc3ccccc23)cc1	active: 6.31 µM
O=C(/C=C/c1cc[n+](CC(=O)c2ccc3cccc4c3c2CC4)cc1)c1ccc2cccc3c2c1CC3	inconclusive: 31.6 µM [inhibitor, partial curve]
COC(=O)c1c(-c2cccs2)csc1NC(=O)COc1c(C)ccc(C)c1C	inconclusive: 50.1 µM [inhibitor, partial curve]
CCOc1ccc(CCNC(=O)c2cnc3sc(N4CCC(C)CC4)nn3c2=O)cc1	inactive
O=C(/C=C/c1ccccc1F)c1cccc([N+](=O)[O-])c1	inconclusive: 31.6 µM [inhibitor, partial curve]
O=C(CSc1ccccn1)Nc1nc2ccccc2s1	inactive
COC(=O)C(=O)Nc1nnc(COc2ccccc2)s1	inconclusive: 89.1 µM [inhibitor, single point]
CCc1ccc(O)c(-c2cc(C(=O)Nc3cccnc3)[nH]n2)c1	inactive
CN1C(=O)C(Cl)(Cl)C(=O)c2ccccc21	active: 39.8 µM
Cc1c(NC(=S)/C=C2\N(C)c3ccccc3C2(C)C)c(=O)n(-c2ccccc2)n1C	inconclusive: 50.1 µM [inhibitor, partial curve]
CN(C)c1ccc(Nc2c3c4c(cccc4n(C)c2=O)C(=O)c2ccccc2-3)cc1	active: 1.58 µM
Cn1c(COc2ccc3ccccc3c2)nnc1SCC(=O)O	inconclusive: 89.1 µM [inhibitor, single point]
Cn1c(=O)c2c(ncn2CCOc2cccc(Br)c2)n(C)c1=O	inactive
